This is one part of the list.
How the values were obtained:
Assay in all cases: glycan array binding signal (z-score within array); higher = stronger binding
Settings in all cases: glycan notation: IUPAC condensed, linker removed
[1] = biological target: GalNAc(b1-4)GlcNAc(b1-2)Man
In short: (§1)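 The Consortium for Functional Glycomics database supplied 3228 glycan arrays, of which those lacking an available protein sequence were dropped. The binding signal, a within-array Z-score, was averaged across arrays of the same protein sequence and across linkers. Negative scores can be read as non-binding.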

[2] = biological target: GalNAc(b1-4)GlcNAc(b1-2)Man(a1-3)[GalNAc(b1-4)GlcNAc(b1-2)Man(a1-6)]Man(b1-4)GlcNAc(b1-4)GlcNAc
In short: as §1

[3] = biological target: GalNAc(b1-4)GlcNAc(b1-3)GalNAc(b1-4)GlcNAc
In short: as §1

[4] = biological target: GalNAc(b1-4)GlcNAc6S
In short: as §1

[5] = biological target: GalNAc(b1-6)GalNAc
In short: as §1

[6] = biological target: GalNAc3S(b1-4)GlcNAc
In short: as §1

[7] = biological target: GalNAc3S(b1-4)GlcNAc3S
In short: as §1

[8] = biological target: GalNAc3S(b1-4)[Fuc(a1-3)]GlcNAc
In short: as §1

[9] = biological target: GalNAc4S6S(b1-4)GlcNAc
In short: as §1

[10] = biological target: GalNAc6S(b1-4)GlcNAc
In short: as §1

[11] = biological target: Glc(a1-4)Glc
In short: as §1

[12] = biological target: Glc(a1-4)Glc(a1-4)Glc(a1-4)Glc
In short: as §1

[13] = biological target: Glc(a1-6)Glc(a1-6)Glc
In short: as §1

[14] = biological target: Glc(a1-6)Glc(a1-6)Glc(a1-6)Glc
In short: as §1

[15] = biological target: Glc(b1-4)Glc
In short: as §1

[16] = biological target: Glc(b1-6)Glc
In short: as §1

[17] = biological target: GlcA(b1-3)Gal
In short: as §1

[18] = biological target: GlcA(b1-3)GlcNAc
In short: as §1

[19] = biological target: GlcA(b1-6)Gal
In short: as §1

[20] = biological target: GlcA3S(b1-3)Gal(b1-4)GlcNAc(b1-2)Man
In short: as §1

[21] = biological target: GlcA3S(b1-3)Gal(b1-4)GlcNAc(b1-3)Gal(b1-4)Glc
In short: as §1

[22] = biological target: GlcNAc(a1-3)Gal(b1-4)GlcNAc
In short: as §1

[23] = biological target: GlcNAc(a1-4)Gal(b1-3)GlcNAc
In short: as §1

[24] = biological target: GlcNAc(a1-4)Gal(b1-4)GalNAc
In short: as §1

[25] = biological target: GlcNAc(a1-4)Gal(b1-4)GlcNAc
In short: as §1

[26] = biological target: GlcNAc(a1-4)Gal(b1-4)GlcNAc(b1-3)Gal(b1-4)Glc
In short: as §1

[27] = biological target: GlcNAc(a1-4)Gal(b1-4)GlcNAc(b1-3)Gal(b1-4)GlcNAc
In short: as §1

[28] = biological target: GlcNAc(a1-4)Gal(b1-4)GlcNAc(b1-3)Gal(b1-4)GlcNAc(b1-3)Gal(b1-4)GlcNAc
In short: as §1

[29] = biological target: GlcNAc(a1-4)Gal(b1-4)GlcNAc(b1-3)Gal(b1-4)[Fuc(a1-3)]GlcNAc(b1-3)Gal(b1-4)[Fuc(a1-3)]GlcNAc
In short: as §1

[30] = biological target: GlcNAc(a1-6)Gal(b1-4)GlcNAc
In short: as §1

[31] = biological target: GlcNAc(b1-2)Gal(b1-3)GalNAc
In short: as §1

[32] = biological target: GlcNAc(b1-2)Man(a1-3)[GlcNAc(b1-2)Man(a1-6)]Man(b1-4)GlcNAc(b1-4)GlcNAc
In short: as §1

[33] = biological target: GlcNAc(b1-2)Man(a1-3)[GlcNAc(b1-2)Man(a1-6)]Man(b1-4)GlcNAc(b1-4)[Fuc(a1-6)]GlcNAc
In short: as §1

[34] = biological target: GlcNAc(b1-2)Man(a1-3)[GlcNAc(b1-4)][GlcNAc(b1-2)Man(a1-6)]Man(b1-4)GlcNAc(b1-4)GlcNAc
In short: as §1

[35] = biological target: GlcNAc(b1-2)Man(a1-3)[GlcNAc(b1-4)][GlcNAc(b1-2)Man(a1-6)]Man(b1-4)GlcNAc(b1-4)[Fuc(a1-6)]GlcNAc
In short: as §1

[36] = biological target: GlcNAc(b1-2)[GlcNAc(b1-4)]Man(a1-3)[GlcNAc(b1-2)Man(a1-6)]Man(b1-4)GlcNAc(b1-4)GlcNAc
In short: as §1

[37] = biological target: GlcNAc(b1-2)[GlcNAc(b1-4)]Man(a1-3)[GlcNAc(b1-4)][GlcNAc(b1-2)Man(a1-6)]Man(b1-4)GlcNAc(b1-4)GlcNAc
In short: as §1

[38] = biological target: GlcNAc(b1-2)[GlcNAc(b1-4)]Man(a1-3)[GlcNAc(b1-4)][GlcNAc(b1-2)[GlcNAc(b1-6)]Man(a1-6)]Man(b1-4)GlcNAc(b1-4)GlcNAc
In short: as §1

[39] = biological target: GlcNAc(b1-2)[GlcNAc(b1-4)]Man(a1-3)[GlcNAc(b1-4)][GlcNAc(b1-2)[GlcNAc(b1-6)]Man(a1-6)]Man(b1-4)GlcNAc(b1-4)[Fuc(a1-6)]GlcNAc
In short: as §1

[40] = biological target: GlcNAc(b1-2)[GlcNAc(b1-6)]Man(a1-6)[GlcNAc(b1-2)Man(a1-3)]Man(b1-4)GlcNAc(b1-4)GlcNAc
In short: as §1

[41] = biological target: GlcNAc(b1-2)[GlcNAc(b1-6)]Man(a1-6)[GlcNAc(b1-2)Man(a1-3)]Man(b1-4)GlcNAc(b1-4)[Fuc(a1-6)]GlcNAc
In short: as §1

[42] = biological target: GlcNAc(b1-2)[GlcNAc(b1-6)]Man(a1-6)[GlcNAc(b1-4)][GlcNAc(b1-2)Man(a1-3)]Man(b1-4)GlcNAc(b1-4)GlcNAc
In short: as §1

[43] = biological target: GlcNAc(b1-3)Fuc
In short: as §1

[44] = biological target: GlcNAc(b1-3)Gal
In short: as §1

[45] = biological target: GlcNAc(b1-3)Gal(b1-3)GalNAc
In short: as §1

B1: PX15618B-bfa-464-25-464 (Bacteroides fragilis) (protein)
chain: DQEPPLYVNENDIFTSPTRIEATLNGLYAAIKNTGTKSLMGGKSYLVFDNRGDDVINISNNLVTLFNTYNMNVGITDAENADTWTYAYLAINKVNTFLQSLEGAREVAGENYDRYVQEAKFVRALAYYYLNNLYPTPYSVNPDAKSVPLRLTAEAGTENNNMPRSTVKQIYEHILSDLENISALDTEVNTYTGVTHATQAAANMLKMRVYMAMNEWDKAITAGELVTGYSLPEDVTLIYKAPYFSQESIFSLPMADTNIPNTQQSLAEYYYDGKIMLIDTKSGIMSKPDYSLATDKRIIAFKGEKDLLMKFTDAKTKLQWVPIFRYAETLLDLAECYANKAGGEATAKSLLKQVRGRSVDAATDPLNIDNLSGDALKEAIYNEKRLEFIGEGIRGIDIMRRGEHFIKVGENETINVGPSDEKYTWPIPQVELLLNKDINK
- glycan array binding signal (z-score) [1]: 0.379
- glycan array binding signal (z-score) [2]: 0.631
- glycan array binding signal (z-score) [3]: -0.232
- glycan array binding signal (z-score) [4]: -0.233
- glycan array binding signal (z-score) [5]: 0.227
- glycan array binding signal (z-score) [6]: -0.132
- glycan array binding signal (z-score) [7]: 0.172
- glycan array binding signal (z-score) [8]: -0.115
- glycan array binding signal (z-score) [9]: -0.388
- glycan array binding signal (z-score) [10]: -0.532
- glycan array binding signal (z-score) [11]: 0.085
- glycan array binding signal (z-score) [12]: 0.287
- glycan array binding signal (z-score) [13]: -0.394
- glycan array binding signal (z-score) [14]: 0.025
- glycan array binding signal (z-score) [15]: -0.138
- glycan array binding signal (z-score) [16]: -0.497
- glycan array binding signal (z-score) [17]: -0.103
- glycan array binding signal (z-score) [18]: 0.019
- glycan array binding signal (z-score) [19]: -0.346
- glycan array binding signal (z-score) [20]: -0.317
- glycan array binding signal (z-score) [21]: -0.127
- glycan array binding signal (z-score) [22]: -0.417
- glycan array binding signal (z-score) [23]: 0.082
- glycan array binding signal (z-score) [24]: 0.543
- glycan array binding signal (z-score) [25]: -0.125
- glycan array binding signal (z-score) [26]: -0.196
- glycan array binding signal (z-score) [27]: -0.455
- glycan array binding signal (z-score) [28]: -0.175
- glycan array binding signal (z-score) [29]: 0.561
- glycan array binding signal (z-score) [30]: -0.455
- glycan array binding signal (z-score) [31]: -0.296
- glycan array binding signal (z-score) [32]: -0.301
- glycan array binding signal (z-score) [33]: 1.04
- glycan array binding signal (z-score) [34]: -0.616
- glycan array binding signal (z-score) [35]: -0.004
- glycan array binding signal (z-score) [36]: -0.364
- glycan array binding signal (z-score) [37]: -0.055
- glycan array binding signal (z-score) [38]: -0.295
- glycan array binding signal (z-score) [39]: 0.399
- glycan array binding signal (z-score) [40]: -0.328
- glycan array binding signal (z-score) [41]: 0.701
- glycan array binding signal (z-score) [42]: 0.249
- glycan array binding signal (z-score) [43]: 0.565
- glycan array binding signal (z-score) [44]: 0.088
- glycan array binding signal (z-score) [45]: 0.064

From the supplement of paper PMC8728848
